# Reference: PMC2478664
# Sequences of proteins named here, by UniProt entry; tags and fusion partners are left off. Residues count along the entry.
# UniProt Q9C5U2, residues 562-873: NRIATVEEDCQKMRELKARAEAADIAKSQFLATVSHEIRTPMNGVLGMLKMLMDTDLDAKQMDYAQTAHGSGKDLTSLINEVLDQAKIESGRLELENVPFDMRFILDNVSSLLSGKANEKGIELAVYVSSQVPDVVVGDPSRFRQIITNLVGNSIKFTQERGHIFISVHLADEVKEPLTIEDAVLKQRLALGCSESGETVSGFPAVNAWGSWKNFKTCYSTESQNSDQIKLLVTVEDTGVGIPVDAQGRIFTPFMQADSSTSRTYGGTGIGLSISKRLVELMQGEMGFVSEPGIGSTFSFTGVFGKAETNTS
# UniProt Q9C5U1, residues 425-728: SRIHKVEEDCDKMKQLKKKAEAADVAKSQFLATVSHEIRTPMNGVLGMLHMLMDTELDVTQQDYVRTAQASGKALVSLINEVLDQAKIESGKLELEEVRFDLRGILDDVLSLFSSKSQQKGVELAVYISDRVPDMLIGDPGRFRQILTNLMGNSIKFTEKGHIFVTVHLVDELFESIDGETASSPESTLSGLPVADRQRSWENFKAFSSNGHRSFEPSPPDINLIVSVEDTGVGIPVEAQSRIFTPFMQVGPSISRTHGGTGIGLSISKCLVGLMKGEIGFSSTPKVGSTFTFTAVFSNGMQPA
# No constants are given. Whether binding was seen depends on the method and setting. Some results given as binding are weak or reduced against the parent protein; the word gives no strength. Where a sequence is shown, tags or fusion partners need not be part of it.
# T1: Arabidopsis response regulator 22 (ARR22), yeast two-hybrid fusion (Arabidopsis thaliana) (UniProt Q9M8Y4)
# T1 sequence: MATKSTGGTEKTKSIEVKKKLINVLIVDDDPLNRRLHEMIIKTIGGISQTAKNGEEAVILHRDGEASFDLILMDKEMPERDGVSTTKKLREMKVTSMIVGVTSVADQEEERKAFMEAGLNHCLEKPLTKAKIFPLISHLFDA
# Biological target: T1, Arabidopsis response regulator 22 (ARR22), yeast two-hybrid fusion (Arabidopsis thaliana)
# Assay: two-hybrid; Matchmaker system, yeast strain PJ69-4A; BD-ARR22 bait (pGBKT7-DEST), AD preys (pGADT7-DEST); growth on interaction selective medium (CSM-L-, W-, Ade-) at 28 C and LacZ (beta-galactosidase) activity in extracts of 3 independent clones
row,binding,Molecule
1,no binding,"histidine kinase (HK) domain of the cytokinin receptor AHK2, AD fusion (from UniProt Q9C5U2 562-873) (domain or fragment)"
2,no binding,"histidine kinase (HK) domain of the cytokinin receptor AHK3, AD fusion (from UniProt Q9C5U1 425-728) (domain or fragment)"
3,no binding,"Arabidopsis response regulator 22 (ARR22), yeast two-hybrid fusion (protein, UniProt Q9M8Y4 1-142) MATKSTGGTEKTKSIEVKKKLINVLIVDDDPLNRRLHEMIIKTIGGISQTAKNGEEAVILHRDGEASFDLILMDKEMPERDGVSTTKKLREMKVTSMIVGVTSVADQEEERKAFMEAGLNHCLEKPLTKAKIFPLISHLFDA"
4,no binding,"histidine-containing phosphotransfer protein AHP4, AD fusion (protein, UniProt Q9LU15 1-127) MTNIGKCMQGYLDEQFMELEELQDDANPNFVEEVSALYFKDSARLINNIDQALERGSFDFNRLDSYMHQFKGSSTSIGASKVKAECTTFREYCRAGNAEGCLRTFQQLKKEHSTLRKKLEHYFQASQ"
5,binds,"histidine-containing phosphotransfer protein AHP3, AD fusion (protein, UniProt Q9SAZ5 1-155) MDTLIAQLQRRFCDFTISLYHQGFLDDQFTELKKLQDECSPDFVAEVVTLFFEDCEKLISNMARALDQTGNVDFKLVGSSVHQLKGSSSSVGAKRVKGLCVTLKECCDSQNYEGCVRCLQQVDIEYKTLKAKLQDLFNLEQQIVQAGGRIPQVDI"

# The next lines start with the molecule.
row,Molecule,binding
1,"histidine-containing phosphotransfer protein AHP2, AD fusion (protein, UniProt Q9ZNV8 1-156) MDALIAQLQRQFRDYTISLYQQGFLDDQFTELKKLQDDGSPDFVSEVLSLFFEDCVKLISNMARALDTTGTVDFSQVGASVHQLKGSSSSVGAKRVKTLCVSFKECCEAKNYEGCVRCLQQVDIEYKALKTKLQDMFNLEKQIIQAGGIVPQVDIN",binds
2,"pseudophosphotransfer protein AHP6, AD fusion (protein, UniProt Q9SSC9 1-154) MLGLGVDRLQADINRLLASLFHQGVLDEQFLQLQQLQDETSPNFVYDVINIYFDESEKLLRNLRLLLMDREFSDYKKIGLHLNQLVGSSSSIGARRVRNVCVAFRSASELSNRPGCLRGLEVVEHEYHYLKNMMHELFQLEQQRILAAGVRYPM",no binding
3,"histidine kinase (HK) domain of the ethylene receptor ERS1, AD fusion (domain or fragment, UniProt Q38846 317-613) MHARDQLMEQNFALDKARQEAEMAVHARNDFLAVMNHEMRTPMHAIISLSSLLLETELSPEQRVMIETILKSSNLVATLISDVLDLSRLEDGSLLLENEPFSLQAIFEEVISLIKPIASVKKLSTNLILSADLPTYAIGDEKRLMQTILNIMGNAVKFTKEGYISIIASIMKPESLQELPSPEFFPVLSDSHFYLCVQVKDTGCGIHTQDIPLLFTKFVQPRTGTQRNHSGGGLGLALCKRFVGLMGGYMWIESEGLEKGCTASFIIRLGICNGPSSSSGSMALHLAAKSQTRPWNW",no binding
4,"histidine-containing phosphotransfer protein AHP5, AD fusion (protein, UniProt Q8L9T7 1-157) MNTIVVAQLQRQFQDYIVSLYQQGFLDNQFSELRKLQDEGTPDFVAEVVSLFFDDCSKLINTMSISLERPDNVDFKQVDSGVHQLKGSSSSVGARRVKNVCISFKECCDVQNREGCLRCLQQVDYEYKMLKTKLQDLFNLEKQILQAGGTIPQVDIN",binds
5,"histidine-containing phosphotransfer protein AHP1, AD fusion (protein, UniProt Q9ZNV9 1-154) MDLVQKQKSLQDYTKSLFLEGILDSQFLQLQQLQDESNPDFVSQVVTLFFQDSDRILNDLSLSLDQQVVDFKKVDPHVHQLKGSSSSIGAQRVKNACVVFRSFCEQQNVEACHRCLQQVKQEYYLVKNRLETLFKLEQQIVASGGMIPAVELGF",no binding
